Sequences and labels used below:
B1: Caulobacter ParB omega fusion; a variant is named by its letters at X, in order, B8GW30 (parent)
chain: MESVVVGEPGMSEGRRGLGRGLSALLGEVDAAPAQAPGEQLGGSREAPIEILQRNPDQPRRTFREEDLEDLSNSIREKGVLQPILVRPSPDTAGEYQIVAGERAWRAAQRAGLKTVPIMVRELDDLAVLEIGIIENVQRADLNVLEEALSYKVLMEKFERTQENIAQTIGKSXSHVANXMRLLXLPDEVQSYLVSGELTAXHARAIAAAADPVALAKQIIEGGLSVRETEALARKAPNLSAGKSKGGRPPRVKDTDTQALESDLSSVLGLDVSIDHRGSTGTLTITYATLEQLDDLCNRLTRGI

The text below walks through data of a collection of fitness landscapes (doi:10.1016/j.celrep.2020.107928).

The full ranking holds about 81,000 sequences; the median of “one-hybrid fitness for binding NBS DNA” is about -0.1, and the highest 2% start at about 0.36. The list shows a part of the results.

This experiment covers variants of B1. The experiment can be described thus: one-hybrid fitness for binding NBS DNA (the Noc-binding site; scaled: cognate 1, non-cognate 0); higher = stronger binding. The following applies: with NBS DNA site. A digest of the protocol: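 In E. coli USO, a HIS3 reporter with its site placed 19 bp from the promoter was used to select Caulobacter ParB variants randomised at four specificity codons. Growth lasted 48 hours at 37°C on histidine-free M9 containing 0.1 mM IPTG and 5 mM 3-AT. Fitness was taken as the log change in variant-to-wild-type read ratio from Illumina sequencing of pre- and post-selection plasmids, rescaled between the non-cognate and cognate sites.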
As to QLYG, the “one-hybrid fitness for binding NBS DNA” value was ≤ 0.2.
Next, QGYG: ≤ 0.2; PSKK: ≤ 0.2.
On to RQAN, for which the “one-hybrid fitness for binding NBS DNA” value was ≤ 0.2.
Regarding VNAT, the “one-hybrid fitness for binding NBS DNA” value is ≤ 0.2.
For the variant MHQG, the “one-hybrid fitness for binding NBS DNA” value is ≤ 0.2.
In the case of QLVN it was ≤ 0.2; in that of ASRA, ≤ 0.2; in that of RPKS, ≤ 0.2.
As to WAGS, the “one-hybrid fitness for binding NBS DNA” value is ≤ 0.2.
In the case of TALV, the “one-hybrid fitness for binding NBS DNA” value is ≤ 0.2.
For the variant FPAI, the “one-hybrid fitness for binding NBS DNA” value was ≤ 0.2.
Next, PSHI: ≤ 0.2; HTLC: ≤ 0.2; STTA: ≤ 0.2.
On to SPSV, for which the “one-hybrid fitness for binding NBS DNA” value is ≤ 0.2.
Turning to GTRV, the “one-hybrid fitness for binding NBS DNA” value is ≤ 0.2.
Next, CFRC: ≤ 0.2.
For PRTP, the “one-hybrid fitness for binding NBS DNA” value is ≤ 0.2.
For GMAC, the “one-hybrid fitness for binding NBS DNA” value was ≤ 0.2.
Consider FSNW, for which the “one-hybrid fitness for binding NBS DNA” value was ≤ 0.2.
For the variant GPFT, the “one-hybrid fitness for binding NBS DNA” value is ≤ 0.2.
In the case of GMDS, the “one-hybrid fitness for binding NBS DNA” value is ≤ 0.2.
On to ANIF, for which the “one-hybrid fitness for binding NBS DNA” value was ≤ 0.2.
DLVT: the “one-hybrid fitness for binding NBS DNA” value is ≤ 0.2.
As for PPRM, the “one-hybrid fitness for binding NBS DNA” value was ≤ 0.2.
Consider MRKC, for which the “one-hybrid fitness for binding NBS DNA” value was ≤ 0.2.
APVI: the “one-hybrid fitness for binding NBS DNA” value is ≤ 0.2.
For RILH, the “one-hybrid fitness for binding NBS DNA” value is ≤ 0.2.
RLCE: the “one-hybrid fitness for binding NBS DNA” value was ≤ 0.2.
With HAMF, the “one-hybrid fitness for binding NBS DNA” value is ≤ 0.2.
In the case of DRIW it was ≤ 0.2; in that of QSGE, ≤ 0.2; in that of HVTK, ≤ 0.2.
In the case of HSYF, the “one-hybrid fitness for binding NBS DNA” value is ≤ 0.2.
Consider SCLT, for which the “one-hybrid fitness for binding NBS DNA” value is ≤ 0.2.
As for PTMG, the “one-hybrid fitness for binding NBS DNA” value is ≤ 0.2.
Consider FEAM, for which the “one-hybrid fitness for binding NBS DNA” value was ≤ 0.2.
In the case of QVKQ, the “one-hybrid fitness for binding NBS DNA” value was determined as 0.241.
Next, LLGA: ≤ 0.2; HMSA: ≤ 0.2; THTS: ≤ 0.2.
With QPYD, the “one-hybrid fitness for binding NBS DNA” value was ≤ 0.2.
In the case of AVTF it was ≤ 0.2; in that of MAQL, ≤ 0.2.
On to FKHT, for which the “one-hybrid fitness for binding NBS DNA” value was ≤ 0.2.
In the case of EWAR it was ≤ 0.2.
For VCAV, the “one-hybrid fitness for binding NBS DNA” value was ≤ 0.2.
In the case of QPYQ it was ≤ 0.2; in that of DMKY, ≤ 0.2.
Consider RHSR, for which the “one-hybrid fitness for binding NBS DNA” value came to 0.448.
In the case of PGPY it was ≤ 0.2; in that of LWSK, ≤ 0.2.
In the case of QGGD, the “one-hybrid fitness for binding NBS DNA” value was ≤ 0.2.
As to VTKL, the “one-hybrid fitness for binding NBS DNA” value was ≤ 0.2.
For RDWY, the “one-hybrid fitness for binding NBS DNA” value is ≤ 0.2.
Consider RLSM, for which the “one-hybrid fitness for binding NBS DNA” value was ≤ 0.2.
Take WPLE: the “one-hybrid fitness for binding NBS DNA” value is ≤ 0.2.
For NYWS, the “one-hybrid fitness for binding NBS DNA” value was ≤ 0.2.
As for RKQK, the “one-hybrid fitness for binding NBS DNA” value was ≤ 0.2.
As to NNMQ, the “one-hybrid fitness for binding NBS DNA” value was ≤ 0.2.
In the case of QQTC, the “one-hybrid fitness for binding NBS DNA” value is ≤ 0.2.
Next, DARS: ≤ 0.2; KSDY: ≤ 0.2; PRNW: ≤ 0.2.
DQMV: the “one-hybrid fitness for binding NBS DNA” value is ≤ 0.2.
On to RCYY, for which the “one-hybrid fitness for binding NBS DNA” value was ≤ 0.2.
As to NGPT, the “one-hybrid fitness for binding NBS DNA” value was ≤ 0.2.
In the case of AESC it was ≤ 0.2; in that of DRGM, ≤ 0.2.
With KTCQ, the “one-hybrid fitness for binding NBS DNA” value is ≤ 0.2.
For PLIW, the “one-hybrid fitness for binding NBS DNA” value was ≤ 0.2.
In the case of NAVN it was ≤ 0.2; in that of HYSR, ≤ 0.2; in that of VLTG, ≤ 0.2.
In the case of WTEG, the “one-hybrid fitness for binding NBS DNA” value is ≤ 0.2.
As to YLPY, the “one-hybrid fitness for binding NBS DNA” value is ≤ 0.2.
Consider RGHY, for which the “one-hybrid fitness for binding NBS DNA” value is ≤ 0.2.
With GNYR, the “one-hybrid fitness for binding NBS DNA” value was ≤ 0.2.
Take YSNG: the “one-hybrid fitness for binding NBS DNA” value was ≤ 0.2.
As to HWYR, the “one-hybrid fitness for binding NBS DNA” value is ≤ 0.2.
As to SKTA, the “one-hybrid fitness for binding NBS DNA” value was ≤ 0.2.
HKLR: the “one-hybrid fitness for binding NBS DNA” value is ≤ 0.2.
Next, QRRP: 0.359; FTPK: ≤ 0.2; EHDL: ≤ 0.2.
As to TING, the “one-hybrid fitness for binding NBS DNA” value is ≤ 0.2.
Consider IARN, for which the “one-hybrid fitness for binding NBS DNA” value is ≤ 0.2.
KLNV: the “one-hybrid fitness for binding NBS DNA” value was ≤ 0.2.
In the case of GRRS it was ≤ 0.2.
For the variant KCVT, the “one-hybrid fitness for binding NBS DNA” value was ≤ 0.2.
On to NKKS, for which the “one-hybrid fitness for binding NBS DNA” value is ≤ 0.2.
Turning to VCQR, the “one-hybrid fitness for binding NBS DNA” value was ≤ 0.2.
For the variant MDPT, the “one-hybrid fitness for binding NBS DNA” value was ≤ 0.2.
For LIKT, the “one-hybrid fitness for binding NBS DNA” value was ≤ 0.2.
As to CLYS, the “one-hybrid fitness for binding NBS DNA” value is ≤ 0.2.
With RESF, the “one-hybrid fitness for binding NBS DNA” value is ≤ 0.2.
As for YFIS, the “one-hybrid fitness for binding NBS DNA” value was ≤ 0.2.
In the case of EARN it was ≤ 0.2; in that of RAAV, ≤ 0.2; in that of TLAM, ≤ 0.2.
Regarding RHIV, the “one-hybrid fitness for binding NBS DNA” value is ≤ 0.2.
For MNNG, the “one-hybrid fitness for binding NBS DNA” value is ≤ 0.2.
On to HDCD, for which the “one-hybrid fitness for binding NBS DNA” value is ≤ 0.2.
For the variant IRER, the “one-hybrid fitness for binding NBS DNA” value was ≤ 0.2.
In the case of QASD it was ≤ 0.2.
Regarding FRLA, the “one-hybrid fitness for binding NBS DNA” value was ≤ 0.2.
Next, FFTA: ≤ 0.2; RWVA: ≤ 0.2.
As to TAMP, the “one-hybrid fitness for binding NBS DNA” value was ≤ 0.2.
In the case of YRTF, the “one-hybrid fitness for binding NBS DNA” value was ≤ 0.2.
Consider GQAE, for which the “one-hybrid fitness for binding NBS DNA” value was ≤ 0.2.
With LMNM, the “one-hybrid fitness for binding NBS DNA” value was ≤ 0.2.
On to ANKR, for which the “one-hybrid fitness for binding NBS DNA” value is ≤ 0.2.
Regarding LPAS, the “one-hybrid fitness for binding NBS DNA” value was ≤ 0.2.
Take AEMS: the “one-hybrid fitness for binding NBS DNA” value is ≤ 0.2.
With LVLS, the “one-hybrid fitness for binding NBS DNA” value was ≤ 0.2.
Turning to LNLP, the “one-hybrid fitness for binding NBS DNA” value is ≤ 0.2.
For LGAW, the “one-hybrid fitness for binding NBS DNA” value was ≤ 0.2.
Consider PYPR, for which the “one-hybrid fitness for binding NBS DNA” value is ≤ 0.2.
Regarding WCGV, the “one-hybrid fitness for binding NBS DNA” value was ≤ 0.2.
As for ICTF, the “one-hybrid fitness for binding NBS DNA” value was ≤ 0.2.
Next, NHRA: ≤ 0.2.
In the case of SIMS it was ≤ 0.2.
Next, TRPD: ≤ 0.2; KFNA: ≤ 0.2.
With RRNI, the “one-hybrid fitness for binding NBS DNA” value is 0.36.
In the case of RLAD it was ≤ 0.2; in that of KLPV, ≤ 0.2; in that of ECPM, ≤ 0.2.
For VMRS, the “one-hybrid fitness for binding NBS DNA” value is ≤ 0.2.
Next, QKLD: ≤ 0.2; ILCS: ≤ 0.2.
In the case of EVGS, the “one-hybrid fitness for binding NBS DNA” value was ≤ 0.2.
As for LCVS, the “one-hybrid fitness for binding NBS DNA” value was ≤ 0.2.
As to KDRF, the “one-hybrid fitness for binding NBS DNA” value is ≤ 0.2.
In the case of NKIK, the “one-hybrid fitness for binding NBS DNA” value is ≤ 0.2.
As for NLNW, the “one-hybrid fitness for binding NBS DNA” value was ≤ 0.2.
Next, NNVG: ≤ 0.2; NAHC: ≤ 0.2; KDQR: ≤ 0.2.
For the variant NGLF, the “one-hybrid fitness for binding NBS DNA” value is ≤ 0.2.
With LGKW, the “one-hybrid fitness for binding NBS DNA” value was ≤ 0.2.
On to VIYG, for which the “one-hybrid fitness for binding NBS DNA” value is ≤ 0.2.
Consider PLQT, for which the “one-hybrid fitness for binding NBS DNA” value was ≤ 0.2.
Next, QAGG: ≤ 0.2; QVPI: ≤ 0.2.
Regarding STTS, the “one-hybrid fitness for binding NBS DNA” value was ≤ 0.2.
RNHK: the “one-hybrid fitness for binding NBS DNA” value is ≤ 0.2.
Take TMTS: the “one-hybrid fitness for binding NBS DNA” value was ≤ 0.2.
CPRS: the “one-hybrid fitness for binding NBS DNA” value was ≤ 0.2.
With HCCT, the “one-hybrid fitness for binding NBS DNA” value was ≤ 0.2.
Regarding AQSK, the “one-hybrid fitness for binding NBS DNA” value was 0.263.
